Measurements reported in a collection of fitness landscapes (doi:10.1016/j.celrep.2020.107928).
Over roughly 81,000 sequences, “one-hybrid fitness for binding NBS DNA” has its median near -0.1; the highest 2% begin near 0.36. The list shows a part of the results.

B1: Caulobacter ParB omega fusion; a variant is named by its letters at X, in order, B8GW30 (parent)
chain: MESVVVGEPGMSEGRRGLGRGLSALLGEVDAAPAQAPGEQLGGSREAPIEILQRNPDQPRRTFREEDLEDLSNSIREKGVLQPILVRPSPDTAGEYQIVAGERAWRAAQRAGLKTVPIMVRELDDLAVLEIGIIENVQRADLNVLEEALSYKVLMEKFERTQENIAQTIGKSXSHVANXMRLLXLPDEVQSYLVSGELTAXHARAIAAAADPVALAKQIIEGGLSVRETEALARKAPNLSAGKSKGGRPPRVKDTDTQALESDLSSVLGLDVSIDHRGSTGTLTITYATLEQLDDLCNRLTRGI

Variants of: B1
Experiment: one-hybrid fitness for binding NBS DNA (the Noc-binding site; scaled: cognate 1, non-cognate 0); higher = stronger binding
Details: with NBS DNA site
Method in brief: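 Bacterial one-hybrid selection in E. coli USO rpoZ- hisB- pyrF- with a HIS3 reporter carrying the site 19 bp from the promoter, screening Caulobacter ParB libraries with four specificity codons randomised (NNS). Cells grew 48 hours at 37°C on M9-minus-histidine plus 0.1 mM IPTG and 5 mM 3-AT. Plasmids before and after selection were Illumina-sequenced, three replicate libraries pooled, and variants under 10 reads dropped. Fitness is the log change in variant-to-wild-type read ratio, rescaled to cognate 1, non-cognate 0.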

one-hybrid fitness for binding NBS DNA, 0.21:
QRWV

one-hybrid fitness for binding NBS DNA, ≤ 0.2:
NSMH
PNTT
RGPI
RHCH
ADSD
SFRR
KHTR
DSRG
KDTN
QIPC
PHFK
ILRC
CLQA
PFPI
GYMG
YLIA
ACSQ
IISM
PHVA
YLRE
ATLR
DNTK
KTLA
ITNC
AWWT
YLTL
ANQT
AIHQ
KNKP
GRLV
FQYG
GEDR
FLLI
AFSG
KNSF
WRRW
HGKT
RKWI
HLER
ASTR
GMLN
DPSD
DYML
APPW
KRLK
DLTE
IKRG
PICW
HTEG
HGSS
CMLR
TRAV
DLSG
YAEL
CSCI
FATY
YHER
PCQR
KFRI
TATA
RIKI
NTRT
LTGR
FYCG
VFRP
ALDY
NDQR
DHKR
QTWY
GQTF
MMHG
FVTD
TVLA
TAGM
YAVD
GSKA
VGPN
QYWN
KCYR
MSKV

one-hybrid fitness for binding NBS DNA, 0.239:
QRWK

one-hybrid fitness for binding NBS DNA, 0.27:
QTGQ

one-hybrid fitness for binding NBS DNA, 0.295:
QFKS
